Reference: the supplement of paper PMC4967469
By IC50 is meant the dose at which the fit gives 50% viability; a limit (>, <) means that the fit lies beyond the doses tested. AUC, from the same fit, is the share of area under the viability curve across the 256-fold dose range; it is 1 without any effect and falls as sensitivity rises. For some of these results: Any top dose called inferred was calculated from the reported fits. For some of these results: An entry number marks a drug with two screens in the source, which often give different values.

Tests used:
Assay in all cases: Viability of human cancer cell lines after 72 h of drug (GDSC screen)
CUDC-101 = compound: C#Cc1cccc(Nc2ncnc3cc(OC)c(OCCCCCCC(=O)NO)cc23)c1 [CUDC-101]; settings: top dose 5.12 µM; top dose inferred
Method: (§1)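 Human cancer cell lines in 384-well plates, medium with 10% serum, drug for 72 h over a 256-fold dose range (nine 2-fold or five 4-fold steps up to the top dose). Adherent lines were fixed and stained with the nucleic acid dye Syto60, suspension lines read with resazurin; signal relative to control wells, capped at 0 and 100%. One two-parameter sigmoid per drug and line, fitted in a mixed model over all curves with the slope shared within a line.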

AC220 = compound: CC(C)(C)c1cc(NC(=O)Nc2ccc(-c3cn4c(n3)sc3cc(OCCN5CCOCC5)ccc34)cc2)no1 [AC220]; settings: top dose 1.024 µM; top dose inferred
Method: as §1

RDEA119 = compound: COc1cc(F)c(F)c(Nc2ccc(I)cc2F)c1NS(=O)(=O)C1(C[C@H](O)CO)CC1 [RDEA119]; settings: top dose 5 µM, top dose inferred
Method: as §1

JNK-9L = compound: Fc1cc(-c2ccnc(Nc3ccc(-n4cnc(N5CCOCC5)n4)cc3)n2)cc(N2CCOCC2)c1 [JNK-9L]; settings: top dose 5.12 µM; top dose inferred
Method: as §1

OSU-03012 = compound: NCC(=O)Nc1ccc(-n2nc(C(F)(F)F)cc2-c2ccc3c(ccc4ccccc43)c2)cc1 [OSU-03012]; settings: top dose 16 µM; top dose inferred
Method: as §1

5-Fluorouracil = compound: O=c1[nH]cc(F)c(=O)[nH]1 [5-Fluorouracil]; settings: top dose 32 µM; top dose inferred
Method: as §1

QS11 = compound: OC[C@H](Cc1ccccc1)Nc1nc(Oc2ccc3c(c2)CCC3)nc2c1ncn2Cc1ccc(-c2ccccc2)cc1 [QS11]; settings: top dose 10.24 µM
Method: as §1

| Cell Line | AUC (CUDC-101) | IC50 (CUDC-101) | AUC (AC220) | IC50 (AC220) | AUC (RDEA119; screen: GDSC drug entry 1014) | IC50 (RDEA119; screen: GDSC drug entry 1014) | AUC (RDEA119; screen: GDSC drug entry 1526) | IC50 (RDEA119; screen: GDSC drug entry 1526) | AUC (JNK-9L) | IC50 (JNK-9L) | AUC (OSU-03012) | IC50 (OSU-03012) | AUC (5-Fluorouracil) | IC50 (5-Fluorouracil) | AUC (QS11) | IC50 (QS11) |
| --- | --- | --- | --- | --- | --- | --- | --- | --- | --- | --- | --- | --- | --- | --- | --- | --- |
| NCI-H358 (lung adenocarcinoma, adherent) | 0.489 | 0.297 µM | 0.982 | > 1.02 µM | 0.883 | > 5 µM | 0.823 | 3.38 µM | 0.494 | 0.308 µM | 0.742 | 5.4 µM | 0.747 | 11.3 µM | 0.962 | > 10.2 µM |
| NCI-H510A (small cell lung carcinoma, semi-adherent) | 0.31 | 0.0989 µM | 0.989 | > 1.02 µM | 0.805 | 2.27 µM |  |  | 0.792 | 2.1 µM | 0.936 | > 16 µM | 0.896 | > 32 µM | 0.979 | > 10.2 µM |
| NCI-H522 (lung adenocarcinoma, adherent) | 0.304 | 0.0806 µM | 0.98 | > 1.02 µM | 0.981 | > 5 µM | 0.944 | > 5 µM | 0.701 | 1.32 µM | 0.722 | 4.85 µM | 0.967 | > 32 µM | 0.94 | > 10.2 µM |
| NCI-H524 (small cell lung carcinoma, suspension) | 0.837 | 2.92 µM | 0.974 | > 1.02 µM | 0.983 | > 5 µM | 0.987 | > 5 µM | 0.883 | 4.48 µM | 0.99 | > 16 µM | 0.991 | > 32 µM | 0.991 | > 10.2 µM |
| NCI-H526 (small cell lung carcinoma, suspension) | 0.569 | 0.491 µM | 0.978 | > 1.02 µM | 0.989 | > 5 µM | 0.985 | > 5 µM | 0.688 | 1.05 µM | 0.695 | 3.43 µM | 0.708 | 7.5 µM | 0.916 | > 10.2 µM |
| NCI-H596 (lung adenocarcinoma, adherent) | 0.564 | 0.504 µM | 0.962 | > 1.02 µM | 0.81 | 3.65 µM | 0.887 | > 5 µM | 0.574 | 0.54 µM | 0.804 | 11 µM | 0.793 | 19.7 µM | 0.966 | > 10.2 µM |
| NCI-H647 (non-small cell lung carcinoma, adherent) | 0.666 | 0.948 µM | 0.973 | > 1.02 µM | 0.847 | 3.95 µM |  |  | 0.653 | 0.868 µM | 0.779 | 6.86 µM | 0.828 | 20.9 µM | 0.895 | > 10.2 µM |
| NCI-H650 (lung adenocarcinoma, adherent) | 0.59 | 0.581 µM | 0.986 | > 1.02 µM | 0.824 | 3.38 µM | 0.899 | > 5 µM | 0.767 | 2.09 µM | 0.833 | 11.8 µM | 0.902 | > 32 µM | 0.762 | 4.01 µM |
| NCI-H661 (large cell lung carcinoma, adherent) | 0.465 | 0.252 µM | 0.973 | > 1.02 µM | 0.916 | > 5 µM | 0.92 | > 5 µM | 0.595 | 0.616 µM | 0.826 | 12.5 µM | 0.937 | > 32 µM | 0.922 | > 10.2 µM |
| NCI-H716 (large intestine, suspension) | 0.799 | 3.22 µM | 0.956 | > 1.02 µM |  |  | 0.632 | 0.798 µM | 0.819 | 3.95 µM | 0.863 | > 16 µM | 0.915 | > 32 µM | 0.969 | > 10.2 µM |
| NCI-H720 (lung carcinoid, suspension) | 0.942 | > 5.12 µM | 0.992 | > 1.02 µM | 0.99 | > 5 µM | 0.991 | > 5 µM | 0.992 | > 5.12 µM | 0.931 | > 16 µM | 0.978 | > 32 µM | 0.992 | > 10.2 µM |
| NCI-H727 (lung carcinoid, adherent) | 0.817 | > 5.12 µM | 0.972 | > 1.02 µM | 0.856 | > 5 µM | 0.577 | 0.58 µM | 0.525 | 0.391 µM | 0.536 | 1.33 µM | 0.938 | > 32 µM | 0.79 | 8.53 µM |
| NCI-H747 (large intestine, adherent) | 0.642 | 0.866 µM | 0.975 | > 1.02 µM | 0.621 | 0.724 µM | 0.427 | 0.189 µM | 0.659 | 0.979 µM | 0.672 | 3.37 µM | 0.816 | 22.9 µM | 0.96 | > 10.2 µM |
| NCI-H810 (large cell lung carcinoma, adherent) | 0.213 | 0.0483 µM | 0.972 | > 1.02 µM | 0.988 | > 5 µM | 0.984 | > 5 µM | 0.418 | 0.193 µM | 0.434 | 0.666 µM | 0.536 | 2.5 µM | 0.762 | 3.52 µM |
| NCI-H838 (lung adenocarcinoma, adherent) | 0.745 | 1.66 µM | 0.985 | > 1.02 µM | 0.814 | 2.86 µM | 0.905 | > 5 µM | 0.551 | 0.444 µM | 0.845 | 12.3 µM | 0.802 | 16.5 µM | 0.969 | > 10.2 µM |
| NCI-H841 (small cell lung carcinoma, adherent) | 0.873 | 4.97 µM | 0.973 | > 1.02 µM | 0.912 | > 5 µM | 0.967 | > 5 µM | 0.86 | 4.33 µM | 0.872 | 15.3 µM | 0.917 | > 32 µM | 0.988 | > 10.2 µM |
